In article PMC4336329 (PLoS ONE, 2015):
Hit rate of the full screen: of about 310,000 compounds, about 14,000 (4.5%) showed an effect of 50% or more. Effects have a minus sign here. Some of the results follow.

Biological target: human ether-à-go-go-related gene (hERG) potassium channel (human, UniProt Q12809)
Assay: primary screen, population patch clamp on CHO cells stably expressing hERG
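Note: peak tail current of the secondary pulse compared with the same well before compound.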

Sequence of human ether-à-go-go-related gene (hERG) potassium channel (Q12809 whole entry, looked up): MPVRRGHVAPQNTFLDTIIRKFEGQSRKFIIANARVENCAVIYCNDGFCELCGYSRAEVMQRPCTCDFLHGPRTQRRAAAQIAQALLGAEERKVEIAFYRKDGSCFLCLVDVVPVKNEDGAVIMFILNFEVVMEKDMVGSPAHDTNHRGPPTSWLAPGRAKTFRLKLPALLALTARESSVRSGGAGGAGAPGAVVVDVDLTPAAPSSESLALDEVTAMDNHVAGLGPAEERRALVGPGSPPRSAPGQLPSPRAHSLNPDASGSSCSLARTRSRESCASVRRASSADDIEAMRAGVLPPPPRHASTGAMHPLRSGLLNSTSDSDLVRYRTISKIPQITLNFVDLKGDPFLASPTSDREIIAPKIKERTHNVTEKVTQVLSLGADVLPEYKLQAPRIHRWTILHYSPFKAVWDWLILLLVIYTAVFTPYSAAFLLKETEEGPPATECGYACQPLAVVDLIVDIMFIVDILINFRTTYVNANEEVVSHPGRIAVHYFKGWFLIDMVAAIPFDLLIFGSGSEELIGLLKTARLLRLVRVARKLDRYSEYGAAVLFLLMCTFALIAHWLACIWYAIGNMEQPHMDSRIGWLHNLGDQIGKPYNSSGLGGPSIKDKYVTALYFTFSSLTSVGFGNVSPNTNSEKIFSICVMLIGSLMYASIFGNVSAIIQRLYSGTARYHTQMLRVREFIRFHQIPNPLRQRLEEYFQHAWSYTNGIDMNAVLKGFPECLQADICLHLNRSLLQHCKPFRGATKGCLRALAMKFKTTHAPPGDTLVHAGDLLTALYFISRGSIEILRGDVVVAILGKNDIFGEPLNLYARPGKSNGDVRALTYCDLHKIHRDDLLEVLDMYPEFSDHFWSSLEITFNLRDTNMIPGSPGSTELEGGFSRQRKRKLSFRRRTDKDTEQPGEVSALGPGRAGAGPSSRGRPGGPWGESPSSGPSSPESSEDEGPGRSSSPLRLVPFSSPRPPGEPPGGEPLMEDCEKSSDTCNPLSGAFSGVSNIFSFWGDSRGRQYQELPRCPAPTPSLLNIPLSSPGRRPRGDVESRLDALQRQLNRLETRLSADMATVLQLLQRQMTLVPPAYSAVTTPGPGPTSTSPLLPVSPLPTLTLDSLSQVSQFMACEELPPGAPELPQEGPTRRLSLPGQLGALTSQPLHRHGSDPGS

Row | SMILES | hERG current change (%, negative = inhibition) at 10uM
1 | Cc1cccc(-n2nnnc2SCC(=O)c2cc(C)n(CC3CCCO3)c2C)c1 (centres unmarked) | -35.4%
2 | CC1(C)Cc2ccccc2-c2nc3ccccc3c(=O)n21 | -10.3%
3 | CCOC(=O)C1CCN(c2cc3c(cc2NC(=O)c2ccccc2)n(C)c(=O)n3C)CC1 | 19%
4 | COc1ccc(NC(=O)Cn2nc(C(=O)O)c3ccccc3c2=O)cc1OC | 13.8%
5 | N#Cc1ccccc1Cn1cc(C(=O)C2CC2)c2ccccc21 | 21.4%
6 | Cc1nc2c(ccc3nc(NC(=O)c4ccc(S(=O)(=O)N(C)C)cc4)sc32)s1 | 15.2%
7 | COc1ccc(Cl)cc1NS(=O)(=O)c1c(C)[nH]c(=O)[nH]c1=O | -6.36%
8 | CC1(c2ccccc2Cl)NC(=O)N(CC(=O)c2ccc3c(c2)OCO3)C1=O (centres unmarked) | -22.9%
9 | O=C(Nc1ccc(-c2nc3ncccc3o2)cc1)c1ccco1 | 15.8%
10 | Cc1ccc(N(C(C)C(=O)N2CCC(C)CC2)S(C)(=O)=O)cc1C (centres unmarked) | -14.7%
11 | CCN1C=C(C(=O)OC)C(c2cccc(C)c2)C(C(=O)OC)=C1 | -2.25%
12 | CC(C)CCN(CC(=O)NC(C)(C)C)C(=O)C(=O)Nc1ccc2c(c1)OCCO2 | -6.24%
13 | COc1cc(C2SCC(=O)N2CCc2ccc(OC)c(OC)c2)ccc1O (centres unmarked) | 7.52%
14 | Cc1ccc(S(=O)(=O)N2CCOCC2)cc1C(=O)OCC(=O)NC1CCCC(C)C1C (centres unmarked) | -15.9%
15 | CCOc1ccc(NC(=O)N(C2CCCCC2)C(C)c2ccncc2)cc1 (centres unmarked) | -27.1%
16 | COS(=O)(=O)[O-].C[N+]1(C)CCC(=C(c2ccccc2)c2ccccc2)CC1 | -71%
17 | COc1ccc(N2CC(O)=C(c3n(C)c4ccccc4[n+]3C)C2=N)cc1.[Cl-] | -17.4%
18 | O=C(c1ccc(Br)o1)N1CCN=C1SCc1cccc(F)c1 | 1.33%
19 | Cc1ccc(S(=O)(=O)N2CCC(C(=O)N3CCCC(C(F)(F)F)C3)CC2)cc1C (centres unmarked) | -10.2%
20 | Cc1ccc2c(c1)NC(=O)C(CC(=O)Nc1ccc(Br)c(C)c1)O2 (centres unmarked) | 13.2%
21 | COc1ccc(C(OCC(O)CN2CCC(O)CC2)c2ccc(OC)cc2)cc1 (centres unmarked) | -48%
22 | CN(C(=O)COC(=O)c1ccc2c(=O)n3c(nc2c1)CCC3)c1ccccc1 | 0.681%

Row | SMILES | hERG current change (%, negative = inhibition) at 10uM
23 | CC1=C(C(=O)OCc2ccccc2)C(c2ccccc2)NC(=O)N1 (centres unmarked) | 13.7%
24 | CCc1n(CC(O)COCC2CC=CCC2)c2ccccc2[n+]1C.[I-] (centres unmarked) | -35.3%
25 | CC(C)NC(=O)CSc1nnc(-c2ccc(S(=O)(=O)N3CCCC3)cc2)n1CC1CCCO1 (centres unmarked) | 4.22%
26 | COc1ccccc1CNC(=O)CN(Cc1ccc(Cl)cc1)S(C)(=O)=O | -14.7%
27 | CCc1ccc(C(=O)Nc2cc3c(cc2Cl)OCCCO3)cc1 | 23.5%
28 | COc1cc(NC(=O)Cc2ccccc2)ccc1NC(=O)c1ccccc1 | -2.16%
29 | CC1(C)CC(=O)C2=C(C1)N(Cc1ccco1)C(=O)NC2(C(F)(F)F)C(F)(F)F | 15.6%
30 | O=C(CCCOc1ccccc1)N1CCN(c2ccc(F)cc2)CC1 | -42%
31 | CCn1c(-c2csc(C(C)C)c2)n[nH]c1=S | 37.1%
32 | NS(=O)(=O)c1ccc(NC(=O)COC(=O)COc2cccc(C(F)(F)F)c2)cc1 | 23%
33 | CCN1CCCC1CNC(=O)c1cc2c(-c3cccc(OC)c3)nn(C)c2s1 (centres unmarked) | -46.3%
34 | O=C(CSCc1cccc(F)c1)N1CCN(c2ccccc2)CC1 | -19.2%
35 | COc1ccc(CCNC(=O)COc2ccc(S(=O)(=O)N3CCOCC3)cc2)cc1OC | -4.85%
36 | Cc1cc(C)cc(NC(=S)N2CC(C)OC(C)C2)c1 (centres unmarked) | 15.5%
37 | CC1(C)C2CCC(C2)C1(C)NC(=O)CN1CCOCC1.Cl (centres unmarked) | 1.1%
38 | CCc1cc(SC#N)cc(CC)c1NC(=O)CCl | 22.3%
39 | CCCCN(C(=O)CCC(=O)Nc1cc(C)on1)C(C(=O)NC1CCCC1)c1ccc(OC)cc1 (centres unmarked) | -20%
40 | COc1ccc(S(=O)(=O)N2CCN(C)CC2)cn1 | 30.7%
41 | O=C(COc1cccc(-n2cnnn2)c1)N1CCOCC1 | 2.13%
42 | Cc1ccc(S(=O)(=O)N2CCC(C(=O)Nc3nnc(C4CCCC4)s3)CC2)cc1 | -2.6%
43 | COCCN1C(=O)c2ccc(C(=O)Nc3nccs3)cc2C1=O | -25.1%
44 | O=C(C1=COCCO1)N(Cc1nnc(-c2ccccc2Cl)o1)C1CC1 | 2.19%
